# From PubChem BioAssay AID624202 (National Center for Advancing Translational Sciences (NCATS), 2012)
# The whole screen tested about 380,000 compounds, of which about 4,000 (1.1%) were called active. Inconclusive means that the source gave no clear call. Such entries were picked first, then a sample of the others. Calls follow the shape of the dose curve; as a rule, active = well fitted activation curve with a large enough effect; inconclusive = small, poorly fitted or top-dose-only effect; inactive = no such curve, though single readings can be large or run the other way. A potency beside an inconclusive call is a rough fit, not a confirmed value.
# Assay: qHTS Assay to Identify Small Molecule Activators of BRCA1 Expression; also: nearly all actives have a fitted effect of over 80% in size
# Details: MCF7-BRCA1-FFLuc reporter, luminescence, 48 h; activation: at 46.1 µM (top of the series), scaled: vehicle 0%, 10 µM genistein 100% unless noted
# Outline: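 Cells: MCF7-BRCA1-FFLuc, 2000/well. Exposure: 48 h, 37 °C, 5% CO2. Read: luminescence, 15 min post-substrate. Controls: genistein 10 microM (maximal activation), DMSO (neutral).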
# Tags tell the direction and shape of the fitted curve.
Structure (SMILES),Potency,activation
CC(C)NC(=O)c1[nH]nc2c1CCc1ccccc1-2,active: 2 µM,–
O=C(N/N=C/c1ccc(F)cc1)c1ccccc1,"inconclusive: 8.91 µM [activator, partial curve, poor fit]",–
O=C(CCCc1cccs1)Nc1ccc2c(c1)OCO2,"inconclusive: 35.5 µM [activator, single point]",–
CCOc1ccc(NC(=O)Cn2c(=O)n(-c3ccccc3)c(=O)c3ccc(C(=O)NCc4ccc5c(c4)OCO5)cc32)cc1,inactive,–
Cc1ccc(-c2cc(C(=O)NCc3ccco3)no2)cc1,active: 3.98 µM,–
O=C(Cn1c(=O)n(Cc2cccs2)c(=O)c2cccnc21)Nc1ccc(F)cc1,inactive,–
CN(c1ccccc1)S(=O)(=O)c1cccc(NC(=O)c2cc3ccccc3oc2=O)c1,active: 11.2 µM,–
O=C(COC(=O)c1cc(NS(=O)(=O)c2cccs2)ccc1O)Nc1ccc(F)c(F)c1F,inactive,–
COC(=O)c1cn[nH]c1NC(=S)Nc1ccc(C)cc1Cl,"inconclusive: 2.51 µM [activator, partial curve, poor fit]",–
COc1ccc(C(=O)Nc2ccc(N3CCN(C(=O)c4cccs4)CC3)cc2)cc1Br,inactive,–
O=C(NCc1cccs1)Nc1ccc(Cl)cc1,active: 10 µM,–
Cc1cc(/C=c2/sc3nc4ccccc4n3c2=O)c(C)n1-c1ccccn1,–,inconclusive: -78% [activator]
O=c1c2c3c(sc2nc2sc(C4CC4)nn12)CCCC3,"inconclusive: 3.55 µM [activator, partial curve, poor fit]",–
C/C(=N\Nc1ccccn1)c1ccc(C(C)C)cc1,"inconclusive: 14.1 µM [activator, partial curve, poor fit]",–
Cc1cc2c(cc1S(=O)(=O)Nc1cccc(C)c1C)n(C)c(=O)c(=O)n2C,inactive,–
Cc1ccc(C)c(N2N=C(C(=O)OCC(=O)N(C)c3ccccc3)CCC2=O)c1,inactive,–
CC(C)c1ccc(N2C(=O)CC(Sc3ncn[nH]3)C2=O)cc1 (stereo not given),inactive,–
O=C(Nc1sc2c(c1C(=O)O)CCC2)c1ccc(F)cc1,"inconclusive: 11.2 µM [activator, partial curve, poor fit]",–
C/C(=C\C(=O)c1cccnc1)Nc1ccc(O)cc1,"inconclusive: 12.6 µM [activator, partial curve, poor fit]",–
FC(F)(F)c1ccc(N/N=C/c2cccnc2)nc1,"inconclusive: 3.16 µM [activator, partial curve, poor fit]",–
CCN(CC)C(=O)CSc1nc(C)cc(-c2cccs2)c1C#N,inactive,–
Cc1cnc(NC(=O)c2nn(C)cc2[N+](=O)[O-])s1,inactive,–
C(=NOCCc1ccccc1)c1ccccn1,"inconclusive: 12.6 µM [activator, partial curve, poor fit]",–
COc1ccc(NC(=O)COc2cccnc2[N+](=O)[O-])cc1OC,inactive,–
O=C(COC(=O)c1cccc(-n2cnnn2)c1)c1ccc(F)cc1,"inconclusive: 14.1 µM [activator, partial curve, poor fit]",–

Structure (SMILES),Potency,activation
CCOC(=O)c1cnc2c(-c3ccccc3)cnn2c1C,"inconclusive: 1.78 µM [activator, full curve, poor fit]",–
O=C(COc1ncnc2cc(Cl)ccc12)c1ccc2c(c1)OCCO2,active: 1.78 µM,–
O=C(CN1CCCCC1)Nc1nc(-c2ccccc2)cs1,"inconclusive: 11.2 µM [activator, partial curve, poor fit]",–
N#Cc1ccccc1NC(=O)c1ccc2c(Cl)c3c(nc2c1)CCCC3,active: 6.31 µM,–
O=C(Nc1ccc2c(c1)oc1ccccc12)N1CCOCC1,active: 6.31 µM,–
N/C(=N\c1nc2ccccc2o1)NC(=O)c1ccccc1Br,"inconclusive: 1.12 µM [activator, full curve, poor fit]",–
N/C(=N\OC(=O)COc1ccccc1)c1ccc(Cl)cc1,"inconclusive: 35.5 µM [activator, single point]",–
CC(C)(C)C(=O)N/C(N)=N/c1nc2ccccc2o1,"inconclusive: 0.631 µM [activator, full curve, poor fit]",–
COc1cccc(OCc2cc(C(=O)N3CCN(c4ccccc4OC)CC3)no2)c1,"inconclusive: 31.6 µM [activator, single point]",–
COc1ccc(C(=O)NCCOc2ccccc2Cl)c(OC)c1OC,"inconclusive: 0.631 µM [activator, full curve, poor fit]",–
Cc1cc(Cl)ccc1OCc1cn2cccnc2n1,"inconclusive: 1 µM [activator, full curve, poor fit]",–
O=C(CSc1nc(-c2ccccc2)cs1)NCCN1C(=O)CSC1=O,"inconclusive: 8.91 µM [activator, single point]",–
c1ccc(-c2ncc(-c3ccn[nH]3)s2)cc1,"inconclusive: 0.562 µM [activator, full curve, poor fit]",–
O=C(CSc1ccccc1)Nc1ccc(NC(=O)c2ccco2)cc1,active: 11.2 µM,–
c1ccc(-c2csc(-c3ccc(-c4csnn4)cc3)n2)cc1,"inconclusive: 7.08 µM [activator, partial curve, poor fit]",–
COc1ccccc1C(=O)N(CCN(C)C)c1nc2cc(C)cc(C)c2s1,inactive,–
COc1ccc(C(=O)CSc2nc3ccccc3n2CC(=O)c2ccccc2)cc1,inactive,–
COc1ccc(Nc2oc(-c3cccs3)nc2C#N)cc1,active: 1.41 µM,–
COc1ccc(C(=O)N2C(=O)c3ccc(N)cc3C2=O)cc1,"inconclusive: 15.8 µM [activator, partial curve, poor fit]",–
C=CCSc1nnc(N2C(=O)C(O)=C(C(=O)c3ccco3)C2c2ccccc2F)s1 (stereo not given),inactive,–
Cc1nc(-c2cc(-c3ccc(Cl)cc3)no2)cs1,"inconclusive: 2.51 µM [activator, full curve, poor fit]",–
CC(=O)c1sc(N/N=C\c2ccc(C)cc2)nc1C,"inconclusive: 2.51 µM [activator, partial curve, poor fit]",–
COc1ccc(NC(=O)c2oc3ccccc3c2NC(=O)C2CCCO2)cc1OC (stereo not given),"inconclusive: 8.91 µM [activator, partial curve, poor fit]",–
CCN1CCN(c2cc3c(nn2)Oc2ccccc2N3C)CC1,"inconclusive: 10 µM [activator, partial curve, poor fit]",–
Cc1ccc(C(=O)NN=CC(=O)c2ccccc2)c(C)c1,"inconclusive: 2 µM [activator, partial curve, poor fit]",–

Structure (SMILES),Potency,activation
CCN1C(=O)/C(=C/C=C2/SCCN2C)SC1=S,"inconclusive: 0.562 µM [activator, full curve, poor fit]",–
COC(=O)N/N=C(\C)c1ccc(Br)cc1,"inconclusive: 12.6 µM [activator, single point]",–
CC(=O)Nc1nc(-c2ccc(-c3ccccc3)cc2)cs1,"inconclusive: 3.16 µM [activator, partial curve, poor fit]",–
Cc1ccccc1C(=O)Nc1cccc(-c2ccc(N3CCOCC3)nn2)c1,active: 14.1 µM,–
COc1ccc(-c2cc(C(=O)NCc3ccco3)c3ccccc3n2)cc1OC,inactive,–
COc1ccc(-n2nc(C(=O)NCC(=O)N3CCN(c4ccccc4F)CC3)c3ccccc3c2=O)cc1OC,active: 8.91 µM,–
Cc1ccc2c(=O)c(C(=O)NCc3cccs3)c[nH]c2c1,active: 11.2 µM,–
CCOc1ccc(NC(=O)c2ccc(NC(=O)COC(=O)c3ccc(NC(=O)CC#N)cc3)cc2)cc1,active: 2.82 µM,–
Cn1c(CCc2ccc(N)cc2)nc2ccccc21,"inconclusive: 1.26 µM [activator, full curve, poor fit]",–
C=CCNC(=O)c1ccc2c3n(nc2c1)-c1ccccc1CO3,"inconclusive: 2.51 µM [activator, partial curve, poor fit]",–
COC(=O)C1C(=O)c2c([nH]c(C(=O)OC3CCCC3)c2C)CC1C (stereo not given),"inconclusive: 2 µM [activator, full curve, poor fit]",–
Cc1ccc(C(=O)OCC(=O)Nc2ccccc2N2CCOCC2)cc1,inactive,–
O=C(NCCOCCNC(=O)OCc1ccccc1)OCc1ccccc1,inactive,–
COc1ccc(-c2csc(-c3ccc(C(=O)O)cc3)n2)cc1,–,inconclusive: 95.6% [activator]
O=c1/c(=C\c2cccnc2)sc2nc3ccccc3n12,active: 12.6 µM,–
S=C(Nc1cccc2ccccc12)N1CCN(c2ncccn2)CC1,"inconclusive: 31.6 µM [activator, single point]",–
COc1ccc(Cn2c(/C=C/c3ccccc3)nc3ccccc32)cc1,"inconclusive: 2.24 µM [activator, partial curve, poor fit]",–
COc1ccc2[nH]c(C(=O)NCCCN3CCCC3=O)c(C)c2c1,inactive,–
CN(C)c1ccc(/C=C/c2cncc3ccccc23)cc1,–,inconclusive: 70.2% [activator]
CCCCNC(=S)Nc1ccc(OC)nc1,inactive,–
Cc1ccc2nc(-c3ccccc3)nn2c1,–,inconclusive: -52.1% [activator]
NC(=O)c1c(NC(=O)c2ccc(F)cc2)sc2c1CCC2,"inconclusive: 1.78 µM [activator, full curve, poor fit]",–
CC(=NO)c1ccc2c(c1)Cc1cc([N+](=O)[O-])ccc1-2,active: 5.62 µM,–
O=C(CSc1nnc2ccc(-c3ccc(Br)cc3)nn12)NCC1CCCO1 (stereo not given),inactive,–
COc1ccc(NC(=O)c2cccc(F)c2)cc1Cl,"inconclusive: 2.51 µM [activator, full curve, poor fit]",–
